Measured values published in the supplement of paper PMC12632987.
In all, about 4,500 sequences were measured (“median log2 fold change of GCK-ALFA target abundance (FLAG IP / Myc IP barcode read proportion)”: median about 0.078, lowest 2% from about -0.6 on). This is one part of the list.

B1: GBRAP_160_4143 (protein)
chain: SEELKKLIEEIREITEEALELIEGESPAEAKTIARVALGEIVMLVDSSEAVSEETKEKVGKVADEAEAKLRANPDASVEEVKALLREATEKVVKILEEEI
B2: GBRAP_64_6491 (protein)
chain: MEEIEKLLEELEKLVEELLKAVADLSEELQEKVQEVLELVKEAKEASLEERLDLVVEAAKLLNEILKNPELTEEQKELAGLALDKANELAWELFEELEKE
B3: GBRAP_128_3535 (protein)
chain: SLEEVRAYAAAVVDEIKASDVATARAITKAWLERLKTWSLEEVEAAVDVLIERLPELTAEKLDAVADAIRENRGTLTPEKQRLVNGVEVEALNLAEELEE
B4: GBRAP_125_3128 (protein)
chain: MEEEDLEDLARLLRALGFSEEDVEEAVELARRFSIRGTLVAAALAEGWEELADALAKLSEEQTREVVRRTVEALDANPGLSPEEVRELLLRLAREAVAAS
B5: GBRAP_184_5151 (protein)
chain: TTVHRSVEAETVEEGIKKAREALEEAKAAGEKLVLHLDAKGLSVEEVEELMKEVVRLAKEAGLEDAQIVVHVEADEEEADKLIEIADKLGVKLVVALLEE
B6: GBRAP_160_4696 (protein)
chain: SETKEKLKKFVDEELEKAKEMIKGETIEQRAVIVSGTGGEILMEFVEEEEVTDELEDEVLKIIDETVEYILANPNLTDEEMKELIDEMKEKIKEAIDKHL
B7: GBRAP_160_4652 (protein)
chain: SAEVEKLIEEIAAEFDEAVAMMKGESHENRVAIAQDMRGRVLLLLEESPLVSEEAEEEVDKILDELVATIAANPDLTDAELAALFEEALAKIKEALEKHS
B8: GBRAP_160_4648 (protein)
chain: SESLEEILEVIDEYSEIAKEAVKEGNLENAIAAMRMMTGDVVLLADEDPRFSEEDVDELDELGDKAVAELEAAKDKSPEELIALIDKGTEELKKLVKEKY
B9: GBRAP_137_3623 (protein)
chain: KKVKITFYEEDGVAIAEITADTSVDKEKVLEIVEEVAEKHGVKLVVALTEPDEPAVFYLVGTPEQVIAAVKELIKRLKEELGIEVELSSEGAEELVEEVK
B10: GBRAP_52_6283 (protein)
chain: SMEEVEEIAERIVELIKEGKLEEALELAREAVEKLSLEEVIRLGELLVERIAELEPEQLDLALEVVEEIARGLEEKFGAEEEADIIEARAAAAAYKRLQA
B11: GBRAP_74_6543 (protein)
chain: MEEEVEKIIEILKNGNDEEKIEAIKKIKLDFSTENLKRLLLALAELAIEAAEAGNKELLEAATDKMVEIYDRIAGEPLDPETEKALVEALAAAVAAEKAA
B12: GBRAP_14_3871 (protein)
chain: KEEVLELINKAIDEMEKEMKKLLPEKAEEIEKVAEEVRKKAKELIEEEDDVEEIMEKIREYSLKLVEEAFKDLPPEDRAALLATADNEFAEVDLEIEEKL
B13: GBRAP_52_6351 (protein)
chain: MEEKARAIALEMVALKLAGDEEALRARAKEIAKTWSDEEIELLFKELARLAKTATPEEAEAILEVAEVLADELIAAGRDEYFASALLADVAKAVYENLQK
B14: GBRAP_195_5412 (protein)
chain: KKVVGRVLRVTAEDTPEQILAKIEAIVAEVKAASNGDLVLVVARDPSVPEETIRAAVARAQARYPDIKITVEIFDDPSLPEATLQRFAEMEVLNLEEELE
B15: GBRAP_52_6022 (protein)
chain: MEEELEEKVEELLELVKEGKEEEARKAAKELVESLNEEELELLIEVLARRAREARPEDHEAVWRLTEIIAEALEEAGVDEALADDLEARVAAALYEALQR
B16: GBRAP_128_3515 (protein)
chain: SMEEAVERVKELMERIGEADEEEARELTRELAELIASNDDETAEAMADKAIELLPKLSREKLEVVADTLREVRPSLSPLKANLVADIEVEALNLAEELEE
B17: GBRAP_52_6052 (protein)
chain: MEERLRALVERALELMRAGDEEGARALLREVAETLDEEELELFAELLAEAAAKAAPEEHDAMARLAELWEDALLEAGVDEAFADDALARIYAALYEAEQK
B18: GBRAP_52_5952 (protein)
chain: MAARIAALVDELWALVKAGRLEEARALARELVRTLDDAELEAFAAAVAARVAAAPPEELDAAFTLAEIVADEIEREGRDEALAGDLLAAAARALHAKELA
B19: GBRAP_184_5171 (protein)
chain: MLLEFEIEINNEEEAREKMEEIAEAVKGKKAELRVLVKMPKVTEEIVRVILEKLKEIKDAGWATDILVDFEGEISEEVRDVALEGAREAGVKVVLALPEE
B20: GBRAP_83_6944 (protein)
chain: KEHVTVAAPGDRIEEAVEIAFDLQKEEGLEVSLEFIFSSEEAEAVLAAVKAAIDRGFEGEITLYSTDRNKELLEKIVAEIKAHAKAAGVKVEVKGYVNEE
B21: GBRAP_78_6715 (protein)
chain: KLEEELDKAIETLNKASKLALKLPEERSNEILDLLVEAANLLEEVKEPGVKKEEALKLLKEAKELLEKALELLGEDDKELKKEVEKALKLVEKAIKELEK
B22: GBRAP_160_4866 (protein)
chain: SEKLEKALEIVEEARERAVAIVREAPASARAAFAEAEMGEAILELEEEGLITDEMEDKLMEIADRLRARLRANADASVEEHIALVEEAFEEMEKTIKEMS
B23: GBRAP_52_5983 (protein)
chain: AAAEARALARELVALVLAGREAEAEALLREAAATLSPEELAAIARELAALARTATPEEIDAIVRAAEMLEDIWLEAGFDEALADDGLARVAAAAYDALQA
B24: GBRAP_160_4177 (protein)
chain: SSKLEEAEKRIRELFAEALEMMKGETAAQRAAIADVTFGEIILELEELGLLTDEVEAEIDAIRDETVATILANPDLTDEELAALLEDSAERIIAALRAGS
B25: GBRAP_150_3922 (protein)
chain: DIETLLTIADTARDYAEGIADGELSLVPHAIKLLKDALEEAEELPEELKEKLKKLLEEAIKLAEKIAAGAPEEERKKLVKELLEKTKKALELVEEYKKKL
B26: GBRAP_160_4669 (protein)
chain: SEELEELMEEIEEIMDEALEMMEGESLEERIAVARVMTGEVILLLEESPLATDEVIDHADELGEELVEYIREHPDITPEELAELLEEKLEELEEKLEEDS
B27: GBRAP_52_5894 (protein)
chain: MLEEAIKLLKEAIEAVKAGDEEKARKILREIVRNFDEETIIEAVERLAKEILEKSLEEAKAFYETMELLAEIWEEEGGDEAIASYIEAVAGAALYEVEQK
B28: GBRAP_9_7186 (protein)
chain: MQEKKEKILEEVKEELELAIEVAPEEYKELIKEKTEEVLKELEKAVKDENTTLEELLKKLEELFEKLIEIAKKNVPKETYLQIEAILGTAILSAEEIIEE
B29: GBRAP_83_6980 (protein)
chain: KEKVVIAAVGDRLLDAVDIAEDLQKEEGKEVELEILATREDIPRVLEMAERLAERGLNLKIRVYLFGATEEEARELRERLEEIAKRHGVKWDIEVEAVEP

Target: GABARAP, O95166
Test: median log2 fold change of GCK-ALFA target abundance (FLAG IP / Myc IP barcode read proportion) (log2 ratio); each designed protein is fused to an ALFA-tag nanobody in HEK293 cells to bring the named protein to FLAG-tagged glucokinase (GCK); Myc marks an untargeted standard; higher = target protein stabilised (more abundant)
Conditions: target protein: 3xFLAG-MCP-GCK-ALFA reporter; HEK293 landing pad (RPLP)
In short: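 An ALFA-nanobody-fused binder library was recombined into HEK293 landing-pad cells and induced with 2 μg mL^−1 doxycycline. Cells were transfected with a plasmid expressing a FLAG-tagged target and a Myc-tagged standard. After 48 h, lysates underwent anti-FLAG and anti-Myc immunoprecipitation, and circular RNA barcodes were reverse transcribed, amplified and sequenced. Target abundance is the per-binder median log2 ratio of FLAG to Myc barcode read proportions. Barcodes needed ≥10^−7 proportion in both replicates, binders ≥3 barcodes per replicate, and a 10^−6 pseudocount was added; the two replicates were pooled.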

GABARAP, O95166, sequence (O95166 whole entry, the tested form may be a part): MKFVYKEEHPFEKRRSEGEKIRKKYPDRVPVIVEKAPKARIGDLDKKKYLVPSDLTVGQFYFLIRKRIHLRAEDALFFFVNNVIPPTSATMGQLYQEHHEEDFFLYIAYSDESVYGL

Binder | median log2 fold change
B1 | 0.0641
B2 | -0.116
B3 | 0.253
B4 | -0.258
B5 | 0.102
B6 | -0.431
B7 | 0.239
B8 | -0.141
B9 | -0.628
B10 | 0.00472
B11 | -0.382
B12 | 0.0963
B13 | 0.161
B14 | 0.171
B15 | 0.0922
B16 | 0.0774
B17 | -0.0838
B18 | 0.0459
B19 | 0.0732
B20 | 0.127
B21 | 0.109
B22 | 0.143
B23 | -0.406
B24 | -0.0732
B25 | 0.133
B26 | -0.43
B27 | -0.149
B28 | -0.362
B29 | 0.0733
